# Experimental data reported in PMC4336329 (PLoS ONE, 2015).
# The whole screen tested about 310,000 compounds, of which about 14,000 (4.5%) showed an effect of 50% or more. The effect is printed as a negative number. This is one part of the list.
# Biological target: human ether-à-go-go-related gene (hERG) potassium channel (human, UniProt Q12809)
# Assay: primary screen, population patch clamp on CHO cells stably expressing hERG
# 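Also: peak tail current of the secondary pulse compared with the same well before compound.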
# human ether-à-go-go-related gene (hERG) potassium channel, sequence (Q12809 whole entry, looked up): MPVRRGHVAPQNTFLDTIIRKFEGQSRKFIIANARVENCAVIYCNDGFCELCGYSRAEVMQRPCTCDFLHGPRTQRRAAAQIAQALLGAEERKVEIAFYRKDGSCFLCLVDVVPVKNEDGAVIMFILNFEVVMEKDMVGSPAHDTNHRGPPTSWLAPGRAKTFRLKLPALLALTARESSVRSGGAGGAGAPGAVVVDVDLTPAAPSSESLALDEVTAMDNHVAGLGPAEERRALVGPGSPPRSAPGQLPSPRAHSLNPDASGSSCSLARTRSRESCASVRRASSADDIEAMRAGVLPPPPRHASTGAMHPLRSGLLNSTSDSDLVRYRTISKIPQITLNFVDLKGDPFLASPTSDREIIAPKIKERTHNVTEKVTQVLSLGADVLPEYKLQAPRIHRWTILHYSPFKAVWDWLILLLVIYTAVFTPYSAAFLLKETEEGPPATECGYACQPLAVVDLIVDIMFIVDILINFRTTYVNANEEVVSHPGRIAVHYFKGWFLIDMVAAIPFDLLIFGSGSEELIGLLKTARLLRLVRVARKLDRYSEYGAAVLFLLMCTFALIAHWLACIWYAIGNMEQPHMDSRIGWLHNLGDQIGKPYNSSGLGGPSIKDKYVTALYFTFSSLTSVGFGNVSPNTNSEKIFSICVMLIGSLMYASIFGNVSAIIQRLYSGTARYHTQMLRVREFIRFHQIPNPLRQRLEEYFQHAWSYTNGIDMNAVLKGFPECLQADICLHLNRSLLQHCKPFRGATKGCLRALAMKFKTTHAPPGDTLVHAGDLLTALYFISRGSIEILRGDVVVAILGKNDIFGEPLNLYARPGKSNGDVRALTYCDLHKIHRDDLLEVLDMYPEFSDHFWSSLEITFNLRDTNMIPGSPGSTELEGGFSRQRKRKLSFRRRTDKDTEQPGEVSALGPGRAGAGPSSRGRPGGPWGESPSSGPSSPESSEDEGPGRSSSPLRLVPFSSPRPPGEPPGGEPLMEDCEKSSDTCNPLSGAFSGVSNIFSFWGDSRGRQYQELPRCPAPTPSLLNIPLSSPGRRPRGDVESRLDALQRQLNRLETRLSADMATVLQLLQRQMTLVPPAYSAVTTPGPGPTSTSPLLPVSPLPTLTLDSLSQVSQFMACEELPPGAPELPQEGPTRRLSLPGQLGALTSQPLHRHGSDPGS
row,SMILES,"hERG current change (%, negative = inhibition) at 10uM [%]"
1,COc1ccc(OCC(=O)Nc2cccc(-c3nc4ccccc4o3)c2)cc1,-0.773
2,COC(=O)c1ccc(CNC(=O)c2ccc3c(c2)S(=O)(=O)N=C2CCCCCN23)cc1,-10.5
3,CCOC(=O)c1c(C)[nH]c(N=Nc2cccc(OC)c2)c1C,-14.6
4,COc1ccc(CNC(=O)C2CCCN(C(=O)Nc3ccc(OC)cc3)C2)cc1 (centres unmarked),-9.81
5,COc1ccc(S(=O)(=O)N2CCOCC2)cc1NC(=O)Cc1sc(C)nc1-c1ccc(F)cc1,13.3
6,COc1cc(/C=C/C(=O)c2ccc(F)cc2)cc(OC)c1OC,9.37
7,O=C(O)c1nc(Cl)c(Cl)c(N/N=C/c2ccccc2C(F)(F)F)c1Cl,16.3
8,Cc1nc(-c2ccc(NC(=O)C3CCCCC3)cc2)cs1,-0.845
9,Cn1ccnc1C(OC(=O)c1ccc(Cl)cc1)C(F)(F)F (centres unmarked),-11.9
10,O=C(NCCS(=O)(=O)N1CCCCC1)c1ccc2c(c1)OCO2,-12.6
11,CCN1CCN(c2cc(N3CCCC3)c([N+](=O)[O-])cc2F)CC1,-19.8
12,CC(C)=CCc1c(O)c(CC=C(C)C)c2occ(-c3ccc(O)cc3)c(=O)c2c1O,4.77
13,CCCn1c(-c2ccccc2)cc(SC)c(C#N)c1=O,17.3
14,CCNC(=O)c1ccc(CSc2nc3ccccc3s2)cc1,-0.267
15,COc1ccc(CNC(=O)CCC(=O)N2CCN(C(C)=O)CC2)cc1,14.3
16,O=C(c1cccs1)N1CCC(Cc2ccccc2)CC1,-13.8
17,COc1ccc(CCNS(=O)(=O)c2ccc3c(c2)OCCO3)cc1,2.19
18,Cc1cccc(Oc2nc(-c3ccncc3)nc3ccccc23)c1,11.9
19,COc1ccc(C(C)(C)C)cc1NC(=O)CNc1cccc2ccccc12,-1.91

row,SMILES,"hERG current change (%, negative = inhibition) at 10uM [%]"
1,O=C(COC(=O)c1ccc(Br)c(S(=O)(=O)N2CCOCC2)c1)NCC1CCCO1 (centres unmarked),-14.6
2,COC(=O)c1ccc(Cn2nnc3c(=O)[nH]c(C4CCN(S(=O)(=O)c5cc(C)ccc5C)CC4)nc32)cc1,17.9
3,CCc1ccc2c(c1)C1(SC(NC(C)=O)=NN1C(C)=O)C(=O)N2CC (centres unmarked),-0.0665
4,CCOC(=O)N1CCN(CCC(=O)c2ccc(Br)cc2)CC1.Cl,-64.6
5,O=C(Cn1cnc2c(nnn2Cc2ccccc2)c1=O)Nc1ccc2c(c1)OCCO2,-17.2
6,C=CCc1cc(OC)ccc1OCCN1CC(C)OC(C)C1.O=C(O)C(=O)O (centres unmarked),-9.85
7,Cc1ccc(N2C(=O)C3CCCN3C2=S)cc1Cl (centres unmarked),-5.29
8,CC1(C)C2CCC1(C)C(NC1=NCCC1)C2.Cl (centres unmarked),-2.27
9,O=C(Nc1ccc(-c2ccc3nncn3n2)cc1)C1CCCCC1,-28.5
10,O=C(c1cccc(C(=O)N2CCc3ccccc32)n1)N1CCc2ccccc21,1.92
11,Cc1cc(C)nc(/N=C2\NC(=O)CC(C(=O)O)N2c2cccc(Cl)c2)n1 (centres unmarked),16.5
12,Cc1ccc(C(=O)N/C(=C\c2ccco2)C(=O)NCc2cccnc2)cc1,-65.2
13,COc1cc(CNC2CCCCC2OC)cc(OC)c1.O=C(O)C(=O)O (centres unmarked),-14.4
14,CCOc1ccc(N(CC(=O)Nc2ccc(CC)cc2)S(=O)(=O)c2c(C)[nH]c(=O)[nH]c2=O)cc1,22
15,CCN(c1ccc(OC)cc1)S(=O)(=O)c1nnc(NC(=O)c2ccc(C)cc2)s1,15.8
16,Cc1noc(C)c1S(=O)(=O)N1CCC(C(=O)NCCCN2CC(C)CC(C)C2)CC1 (centres unmarked),10.3
17,CC(c1ccco1)N(C(=O)c1ccc(S(=O)(=O)N2CCCCC2)cc1)c1ccccn1 (centres unmarked),-4.75
18,O=C(O)CCn1c(=O)n(CCC(=O)O)c(=O)n(CCC(=O)O)c1=O,17.3
19,CC(CC(=O)Nc1ccc(-c2ccno2)cc1)n1cccn1 (centres unmarked),-4.75

row,SMILES,"hERG current change (%, negative = inhibition) at 10uM [%]"
1,CN(C(=O)COC(=O)c1cccc(F)c1)c1ccccc1,13.3
2,COc1ccc(-c2nc3cnccn3c2Nc2ccc3c(c2)OCO3)cc1,-52.7
3,CCOC(=O)Nc1sc2c(c1C#N)CCCC2,-12.7
4,O=C(Nc1ccc(F)cc1F)NC1CC1,14.8
5,Cc1ccc(-c2nc(C)sc2CC(=O)OCC(=O)Nc2c(F)cccc2F)cc1,-5.28
6,CC(C)C(=O)Nc1nnc(S(=O)(=O)N2CCCc3ccccc32)s1,3.84
7,CCCCn1nnnc1SCC(=O)N(CC)CC,10.4
8,CCOC(=O)c1c(NC(=O)CSc2nnc(-c3cccnc3)n2Cc2ccco2)sc(C)c1C,-24.7
9,O=C(Nc1ccncc1)c1ccc(Br)cc1,-4.86
10,Cc1cccc(-n2cnc3cc([N+](=O)[O-])ccc32)c1,-51.9
11,CCN(CC)S(=O)(=O)c1ccc(NCCc2ccccn2)nc1,12.3
12,COC(=O)CN(c1ccc2c(c1)OCCO2)S(=O)(=O)c1ccccc1,-22.2
13,Cc1cc(C)c2nc(N(CCN(C)C)C(=O)/C=C/c3cccs3)sc2c1.Cl,17.9
14,Fc1ccccc1Cc1noc(CN2CCN(c3ccc(Cl)cn3)CC2)n1,-38
15,COc1ccc(CCNc2nc(-c3sc(N)nc3C)cs2)cc1OC,-1.28
16,Cc1ccc2oc(-c3cccc(NC(=O)/C=C/c4cccc([N+](=O)[O-])c4)c3C)nc2c1,-0.234
17,O=C(O)C1Cc2ccccc2CN1S(=O)(=O)c1ccc(Cl)cc1 (centres unmarked),16.5
18,Cc1cccc(-n2c(C)nc3cc(C(=O)N4CCC5(CC4)OCCO5)ccc32)c1,-22.7
